This note sets out measurements from ChEMBL document CHEMBL4888484, “Replenishing the malaria drug discovery pipeline: Screening and hit evaluation of the MMV Hit Generation Library 1 (HGL1) against asexual blood stage Plasmodium falciparum ,using a nano luciferase reporter read-out” (2022).

Screen size: about 150,000 compounds; about 540 (0.36%) showed an effect of 50% or more. Some of the results follow.

In this assay the test system is Plasmodium falciparum. Description: Primary screen in NF54 nanoGlo assay, in single point, at 2uM, 72h; a lower Z score goes with more inhibition. As to conditions: timepoint 72 hour. Format: functional, Erythrocyte.
As to `Cc1cccn2cc(C(=O)N3CCCn4cncc4C3)nc12`, the “% Inhibition” value came to 13% and the Z score is recorded as -1.23.
In the same order, the values of `NC1=C(c2nc3ccccc3s2)C(=O)CN1Cc1ccco1` are 30% and -3.34.
In the same order, the values of `COc1cc(CN[C@H](c2ccc(F)c(Cl)c2)C2CC2)on1` are -6% and 0.82.
In the same order, the values of `O=C(CCCN1CCCCC1=O)NCCC1(O)CCCC1` are -10% and 1.16.
On to `COc1cc(N[C@@H]2C(=O)Nc3c(C)cccc32)ncn1`, for which the “% Inhibition” value was -6% and the Z score is recorded as 0.7.
In the same order, the values of `CCCn1ncc(C(=O)NCCCn2ccnn2)c1C` are -11% and 1.35.
In the same order, the values of `Nc1noc2cc(C(F)(F)F)cnc12` are 33% and -0.53.
`COc1ncc(-c2c(C#N)c(N)nc3c2C[C@@H](c2ccccc2)CC3)cn1`: the “% Inhibition” value was found to be 3% and the Z score is reported as -0.45.
In the same order, the values of `COc1ccc(C)cc1[C@@H](O)CN1CCN(c2ncccn2)CC1` are 1% and -0.17.
In the same order, the values of `CCc1cc2c3c([nH]c2cc1S(=O)(=O)N(CC)c1ccccc1)CCCC3=O` are -11% and 2.04.
In the same order, the values of `CNS(=O)(=O)c1ccccc1NS(=O)(=O)c1c(C)sc2ccccc12` are -2% and 0.29.
Turning to `c1nc(CCc2nc(C3CC4CCCCN4C3)no2)cs1` (centres undefined), the “% Inhibition” value is -9% and the Z score worked out at 1.19.
In the same order, the values of `COc1ccc(C)c2sc(N(Cc3cccnc3)C(=O)c3ccnn3C)nc12` are -9% and 1.68.
In the same order, the values of `CC(C)(O)CCn1c(=O)n(C2=CCCCC2)c2ccccc21` are -9% and 0.95.
In the same order, the values of `CCC(C(=O)N1CCCCC1c1cc(C(N)=O)[nH]n1)c1ccccc1` (centres undefined) are 14% and -1.86.
For the compound `Cc1cccc(OCc2nc(CN(CCN3CCCC3)C(=O)C(C)C)cs2)c1C`, the “% Inhibition” value is given as -5% and the Z score is given as 0.81.
In the same order, the values of `Cc1cc(C)c(C)c(S(=O)(=O)N2CC(O)C[C@H]2C(=O)NCC(=O)OCC2CC2)c1C` (some centres undefined) are 1% and -0.06.
In the same order, the values of `Fc1ccc(OC2CCN(c3ccc4nnnn4n3)CC2)c(F)c1` are 1% and -0.19.
`Nc1nc(COC(=O)CCc2ccc(Cl)cc2)nc(Nc2ccccc2)n1`: the “% Inhibition” value is 2% and the Z score is recorded as -0.33.
Consider `CC(C)[C@H]1CCO[C@H]1C(=O)N1CCC(C)S(=O)(=O)CC1` (some centres undefined), for which the “% Inhibition” value is recorded as 6% and the Z score was -1.09.
In the same order, the values of `CCN1CC(=O)N[C@H]2CN(C(=O)c3c[nH]c(=O)c(Cl)c3)CC[C@@H]2OCc2cccc(c2)Oc2cc(OC(C)C)cc(c2)C1=O` are -6% and 1.09.
In the same order, the values of `NCC1(c2nc3ccccc3s2)CC1` are 8% and -1.01.
In the same order, the values of `CN(C)c1cc(CCOCc2ccccc2)ncn1` are 0% and 0.05.
Turning to `Cc1ccc(Nc2nc(C(=O)NCc3ccc(C)o3)cs2)c(C)c1`, the “% Inhibition” value is given as -3% and the Z score is 0.32.
In the same order, the values of `CC[C@H]1c2cccn2CCN1C(=O)Cc1c(C)n[nH]c1C` are 0% and -0.01.
In the same order, the values of `Cc1ncccc1C(=O)NCC(=O)N1CCCCCNC(=O)C[C@H]1c1ccccc1` are -16% and 2.11.
Consider `Cn1cc(S(=O)(=O)N2CCCC2CC(O)c2ccco2)cn1` (centres undefined), for which the “% Inhibition” value is reported as -13% and the Z score was found to be 1.13.
On to `COc1cc(C(=O)N2CC[C@](C)(O)[C@H](Cc3ccccc3)C2)ccn1`, for which the “% Inhibition” value is on record as -10% and the Z score is listed as 1.82.
In the same order, the values of `Cc1occc1C(=O)N(Cc1ccco1)C1CC1` are 1% and -0.13.
In the same order, the values of `O=C(c1ccsc1)N1CC[C@H](CCOc2ccccc2)C1` are -4% and 0.66.
In the same order, the values of `CN(C)Cc1cnc(CN2CCC[C@H](n3cncn3)C2)s1` are -6% and 0.93.
Take `Cc1noc(C)c1CS(=O)(=O)CC(=O)N1CCc2ccccc21`: the “% Inhibition” value is reported as -11% and the Z score came to 1.73.
With `Cn1nc2nc(N3CCN(C(=O)[C@@H]4CCCO4)CC3)nc(-c3ccc(F)c(Cl)c3)c2c1N`, the “% Inhibition” value is listed as -1% and the Z score was 0.1.
In the same order, the values of `CCN(Cc1cnc(C)cn1)Cc1ccc(C)o1` are 7% and -0.88.
In the same order, the values of `O=C1CCCN1CC(=O)N1CCO[C@@H](CC(c2ccccc2)c2ccccc2)C1` are -5% and 0.71.
In the same order, the values of `Cc1onc(-c2ccccc2)c1C(=O)N1CC[C@H](Cc2ccc(CO)cc2)C1` are -7% and 1.04.
On to `COc1ccccc1OCCCN1C(=O)[C@](O)(CC(C)=O)c2cccc(C)c21`, for which the “% Inhibition” value was -2% and the Z score stood at 0.25.
`CC(C)CCC(=O)N1CCC(N2C(=O)CC[C@H]2C(=O)NCc2ccccc2)CC1`: the “% Inhibition” value is -6% and the Z score stood at 0.96.
In the same order, the values of `CCc1nnc(CN[C@@H](C(=O)OC(C)(C)C)c2ccccc2)o1` are -4% and 0.41.
In the same order, the values of `Cc1noc(C)c1C(=O)Nc1sc2c(c1C#N)CC[C@H](C)C2` are -11% and 1.57.
In the same order, the values of `CCOC(=O)c1c(C)[nH]c(C(=O)OC)c1CCC(=O)OC` are -9% and 1.59.
Turning to `[O-]c1c(-c2ccccc2)sc2c3ccccc3c(-c3ccc(Cl)cc3)n[n+]12`, the “% Inhibition” value is -9% and the Z score is 1.14.
Consider `CS(=O)(=O)[C@H]1CCN(C(=O)NCCc2ccc(Cl)s2)C1`, for which the “% Inhibition” value was -12% and the Z score was 1.8.
For the compound `COc1ccc(NC(=O)Cn2cc(C(=O)N3CCCC3)c(=O)c3ccc(C)nc32)cc1`, the “% Inhibition” value is -6% and the Z score is listed as 0.83.
In the same order, the values of `CCCc1ncncc1C(=O)N1CC[C@]2(OC)CC[C@H](O)C[C@H]12` are 2% and -0.25.
In the same order, the values of `CC1CCC(N2CCN3C(=O)c4ccccc4OCC[C@@H]4CC[C@@H](NC(=O)NC(C)C)[C@@H](CNC(=O)[C@@H]3C2)O4)CC1` (some centres undefined) are -9% and 1.32.
In the same order, the values of `CCCc1cc(C(=O)N2CC[C@@H]3OCc4cccc(c4)Oc4ccc(cc4)CCC(=O)N(CCCO)CC(=O)N[C@H]3C2)[nH]n1` are -1% and 0.22.
Turning to `Cc1cnn(-c2ccncc2NS(C)(=O)=O)c1`, the “% Inhibition” value was determined as 33% and the Z score was -4.45.
In the same order, the values of `Cc1c[nH]c(C2(NC(=O)[C@@H]3C[C@]3(C)c3ccccc3)CCOCC2)n1` are -5% and 0.56.
In the same order, the values of `CN(C(=O)C1C(C(=O)O)C1(C)C)c1ccccc1OC(F)F` (centres undefined) are 36% and -4.11.
In the same order, the values of `Cc1nc(CNC(=O)C2CCC(C(F)(F)F)NC2=O)sc1C` (centres undefined) are 2% and -0.24.
Take `CS(=O)(=O)N[C@H]1CCN(Cc2coc3ccccc23)C1`: the “% Inhibition” value was -12% and the Z score worked out at 1.74.
In the same order, the values of `CCc1[nH]c2ccc(CNC(=O)[C@H]3CCc4nn(C)c(=O)n4C3)cc2c1C` are 7% and -0.95.
In the same order, the values of `CN(Cc1ccc(-n2cccn2)cc1)C(=O)C[C@H]1COCCN1` are 0% and -0.01.
In the same order, the values of `O=c1cc(-c2ccccc2)n(S(=O)(=O)c2ccccc2)o1` are 38% and -4.94.
Take `CNS(=O)(=O)CCNc1cc(OC)ncn1`: the “% Inhibition” value is reported as -3% and the Z score worked out at 0.47.
With `CC(C)(C)OC(=O)[C@]1(NC(=O)c2cc(F)ccc2Cl)CCOC1`, the “% Inhibition” value is reported as 5% and the Z score is given as -0.48.
In the same order, the values of `NC(=O)N1CCCN(C(=O)c2cc3c(s2)CCCCCC3)CC1` are 7% and -0.75.
In the same order, the values of `Cc1cc2c(NC(=O)N3CCN[C@@H]4CS(=O)(=O)C[C@@H]43)cccc2nn1` are -7% and 0.91.
In the same order, the values of `CCN1C[C@H](CN(C)C(=O)c2ccc(NC(=O)c3cccs3)cc2)Oc2ccccc21` are 31% and -3.98.
On to `O=C(Nc1ccc(Br)cc1)c1c(F)c(F)c2c(c1F)N(Cc1ccccc1)CCS2(=O)=O`, for which the “% Inhibition” value is -1% and the Z score is reported as 0.19.
In the same order, the values of `CN1CCN([C@H]2CCN(c3nccc4ccccc34)C[C@H]2CCC(=O)O)CC1` are 1% and -0.12.
Turning to `N#CCCCS(=O)(=O)NCCc1cc(C(F)(F)F)ccn1`, the “% Inhibition” value is -8% and the Z score worked out at 0.83.
In the same order, the values of `CC1(C)CNC(=O)N1Cc1ccc(Cl)cc1` are 7% and -1.01.
In the same order, the values of `Cc1ccc(C(=O)N[C@H]2CCN(C3CCCCC3)C2=O)cc1O` are -8% and 0.8.
In the same order, the values of `COc1c2ccc(C(=O)N3CCOCC3)cc2nn1C` are -5% and 0.92.
Consider `COc1ccc(N[C@H]2CCCN(C3CCN(c4ccc(F)cc4C)CC3)C2)cc1OC`, for which the “% Inhibition” value is -14% and the Z score stood at 1.26.
In the same order, the values of `Cc1c(C(=O)N(C)CC2(O)CCOCC2)nnn1-c1cccc2cccnc12` are -12% and 2.23.
Consider `c1ccc(-c2nnc(-c3ccccn3)o2)cc1`, for which the “% Inhibition” value is -14% and the Z score came to 2.45.
Turning to `O=C(c1cccc(-n2cccn2)n1)N1CCC[C@H]1c1cccc(F)c1`, the “% Inhibition” value was -19% and the Z score was determined as 1.65.
In the same order, the values of `Cc1nc(=O)[nH]c(C)c1CCC(=O)Nc1nc(C(F)(F)F)c[nH]1` are -7% and 0.78.
In the same order, the values of `Cc1nc(CC(N)=NO[C@H]2CCCc3cccnc32)cs1` are -4% and 0.94.
In the same order, the values of `O=C(c1ccc2c(c1)ncn2CCO)N1C[C@H]2CC[C@@H](C1)N(CC1CC1)C2` are -13% and 1.96.
Turning to `Cc1onc(C(=O)N2CCC(CCc3noc(N(C)C)n3)CC2)c1CN1CCCCC1`, the “% Inhibition” value was -4% and the Z score turned out to be 0.69.
In the same order, the values of `O=C(OCc1nc(-c2ccccc2)no1)c1nn(-c2ccc(F)cc2)cc1O` are 7% and -0.92.
In the same order, the values of `CCOc1cc(N2CCOCC2)c(OCC)cc1N[C@@H](C)C(=O)Nc1cc(Cl)cc(Cl)c1` are 2% and -0.22.
In the same order, the values of `O=C(O)Cn1c(Cc2ccccc2)nc2ccccc21` are 9% and -1.11.
`COCc1c(-c2cccc(F)c2)c2cc3c(cc2[nH]c1=O)OCCO3`: the “% Inhibition” value stood at 8% and the Z score was -0.97.
In the same order, the values of `COCC(=O)N1CCc2ncnc(N3CCC[C@H](C(N)=O)C3)c2CC1` are 10% and -2.04.
In the same order, the values of `CN(C)CCN(C[C@H]1CCCO1)C(=O)c1cccc(-c2cc(N)ncn2)c1` are 6% and -0.78.
In the same order, the values of `Nc1nc(-c2ncnn2CC(F)(F)F)cs1` are -23% and 2.09.
For the compound `Cc1c(Cc2ccccc2)c(=O)n2nc(-c3ccccc3)nc2n1CC(=O)NCc1ccccc1F`, the “% Inhibition” value was determined as 11% and the Z score is listed as -1.42.
